Test results: patent US20230322928A1, “TREATMENT METHODS USING CTLA-4 AND PD-1 BISPECIFIC ANTIBODIES” (MedImmune, LLC, priority 2022, published 2023)

How the values were obtained:
[1] = system: advanced clear-cell RCC; experiment: Phase 1 study: antitumor activity in RCC expansion cohorts; type: in vivo, human
Text: (§1) The primary endpoint was OR, which is commonly used in oncology studies evaluating subjects with advanced solid tumors, including RCC or NSCLC. The primary objective for the squamous NSCLC expansion cohort was to evaluate the safety and tolerability of MEDI5752 in subjects with advanced solid tumors when combined with chemotherapy.

[2] = system: advanced solid tumors; experiment: Phase 1 study: antitumor activity of MEDI5752 monotherapy, dose escalation and MTD/OBD cohorts (RECIST v1.1); type: in vivo, human
[3] = system: nonsquamous NSCLC; experiment: Phase 1 study: antitumor activity in non-squamous NSCLC expansion cohorts (with carboplatin/pemetrexed); type: in vivo, human
Text: as §1
PD-L1 status will be assessed in subjects who have provided archival or fresh tumor biopsies. For the NSCLC expansion cohorts, PD-L1 positive is defined as baseline PD-L1 expression with tumor cell ≥1% and PD-L1 negative is defined as baseline PD-L1 expression with tumor cell <1%.

[4] = system: CD4+ T cell
[5] = 500 mg during dose escalation, 5 subjects
[6] = 750 mg during dose escalation, 8 subjects

For “MEDI5752: anti-PD-1/CTLA-4 bispecific antibody; light chain SEQ ID NO:1 and heavy chain SEQ ID NO:2 (PD-1), light chain SEQ ID NO:3 and heavy chain SEQ ID NO:4 (CTLA-4)”, the “Durability of responses, first-line RCC cohort” value ([1]; FIG. 13) was “durable”, the ORR ([1]; RCC expansion cohort RCC-C1, MEDI5752 1500 mg (10/26)) was 38.5% and the CRs ([1]; RCC expansion cohort RCC-C1, MEDI5752 1500 mg, 26 subjects) was 2. For the same substance, the “ORR in the first-line RCC subjects” value ([1]; RCC-C1, MEDI5752 1500 mg (7/12)) was 58.3%, the “Dose-limiting toxicities (DLTs)” value (2500 mg monotherapy cohort, one subject) was “Grade 3 maculopapular rash” and the “Deaths judged to be related to MEDI5752 treatment” value (one due to diabetic ketoacidosis and hyperthyroidism, one due to myocardial infarction) was “Two deaths”. The “Subjects with best overall response of partial response (PR)” value [2, 5] was 2 subjects, the “Subjects with progressive disease (PD)” value [2, 5] was 1 subject and the “Subjects with BOR of SD” value [2, 6] was 4 subjects. The “Subjects with PD” value [2, 6] was 3, the “Median duration of response” value ([2]; MEDI5752 monotherapy (FIG. 9)) was 17.5 months and the “Response in diverse IO-naïve tumors” value ([2]; Monotherapy across a range of MEDI5752 doses (FIG. 10)) was “durable response”. For the same substance, the “Complete response (CR), subjects” value ([2]; Monotherapy, dose-escalation and MTD/OBD cohorts, regardless of dose, 86 subjects) was 1, the “Overall objective response rate (ORR) per RECIST v1.1” value ([2]; Monotherapy, dose-escalation and MTD/OBD cohorts, regardless of dose, response evaluable (17/86)) was 19.8% and the ORR ([3]; NSCLC-C1R, MEDI5752 1500 mg+carboplatin/pemetrexed arm (10/20)) was 50.0%. For the same substance, the “Preliminary response of CR+PR+unconfirmed PR” value ([3]; NSCLC-C2 non-squamous, MEDI5752 500 mg+carboplatin/pemetrexed (11/32)) was 34.4%, the ORR ([3]; NSCLC-C2 non-squamous, MEDI5752 500 mg+carboplatin/pemetrexed, response-evaluable (8/32)) was 25% and the “ORR, PD-L1 <1% subgroup” value ([3]; NSCLC-C2 non-squamous, MEDI5752 750 mg+carboplatin/pemetrexed (24/48)) was 50%. For the same substance, the ORR ([3]; NSCLC-C2 non-squamous, MEDI5752 750 mg+carboplatin/pemetrexed, first 66 subjects, response-evaluable (30/66)) was 45.5%, the “CD4+ T cell activation” value ([4]; Monotherapy setting) was “dose-dependent increase” and the “CD4+ T cell proliferation” value ([4]; Monotherapy, plateauing at 500/750 mg and above) was “dose-dependent increase”.
Work on Pembrolizumab [reference compound] yielded an ORR ([3]; NSCLC-C1R, pembrolizumab+carboplatin/pemetrexed arm (10/21)) of 47.6%.
